Results published in PubChem BioAssay (NCI).
Some structures have more than one record in an assay (separate samples or runs), and their calls can disagree.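 Results are percent growth after 48 hours of single-concentration exposure. 100 means growth as in untreated cells, lower positive values show inhibition; negative values down to -100 show cell death.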 For part of its entries the source gives two or more results. This is not the full list of results. The source may hold further records. Rule for the calls: active = growth percent below 10; inactive = the rest. The screen tested this drug many times, at the concentration stated with the values; each value is one run. Counts like (3×) stand for listed records that agree.

Test system: MALME-3M melanoma
Assay: NCI-60 one-dose screen, 48 h (100 = growth as untreated, 0 = no growth, -100 = all killed)

COc1cccc2c1C(=O)c1c(O)c3c(c(O)c1C2=O)C[C@@](O)(C(=O)CO)C[C@@H]3OC1CC(N)C(O)C(C)O1 (stereo not given in full)
growth (0.25 µM, runs of 2012): inactive: 15.3, 17.3, 32.7, 30.9, 41.1, 43.3, 11.3, 10.5, 14.4, 23.3, 18.1, 11.7, 17.6, 19.3, 34, 35.2 (2×), 34.5, 30.1 (2×), 35.4, 22.7, 42.7, 29.5, 25.1, 11.2 (2×), 18, 22, 27.2, 16.6, 31.5, 30.3, 28.6, 30.8, 34.7, 27.8, 39.1, 25.5, 30.7, 33.8, 20.1, 34.1, 42.8, 40.1, 36.9, 19.2, 12.5, 23, 18.4, 16.2, 59.5, 59.2, 11.6, 17, 39.8, 13.6% and active: -11.1, 7.91, 4.73, 8.54, 0.498, 5.72, -1.12, 7.9, 6.21, 6.28, 7.54% | growth (0.25 µM, runs of 2013): inactive: 13.3, 17.5, 12.4, 33.1 (2×), 37.6, 34.2, 31.2, 28.5, 40.5, 40.1 (2×), 41.2, 33, 26.4, 28.4, 40.9, 37.1, 20.5, 37.5, 56.6, 52.7, 41.6, 33.8, 56.4, 51.2 (2×), 36.7, 26.9, 41.5, 39.9, 37.7, 29.4, 38.8, 41.7, 44.4, 43.9, 39.7, 30.3, 25.3, 11.2, 30.8, 35.4, 21.6 (2×), 10.3, 11.7, 12, 11.5, 30.7, 25.2, 23.6, 21.1, 13.7, 22.9, 28.9% and active: -8.83, -10.5, 3.37, 9.4, -7.78% | growth (0.25 µM, runs of 2014): inactive: 13.7, 16.8, 25 (2×), 12.1, 15.1, 17.9, 22.4, 19, 14.3, 24.3, 26.4 (3×), 13.6, 23.6, 22.5, 20.3, 18 (2×), 23.3, 27.8, 24.6 (2×), 27.5, 22.1, 19.1, 22.2, 33.3, 20.4, 21.8, 25.2, 21.1, 11.2 (2×), 12.2, 28.2, 26.6, 22.6, 16.4 (2×), 11, 16.1, 14.9, 18.7, 20.9, 19.7, 15.7, 24.2, 13.2, 16, 26.1, 21.3, 15.5% and active: -2.58, 6.69, 9.37, 3.19, -9.37, -5.72, 9.91, 2.26, 6.41, 6.32, 5.54, 8.65, 7.06 (2×), 8.19, 8.57, 3.28, 7.68, 9.93% | growth (0.25 µM, runs of 2015): inactive: 26.3, 24.2, 25.6, 22.7, 17.8, 17.5 (3×), 24.9, 20 (2×), 20.6, 22.2, 16.7, 12.6, 30.3, 14.4, 13.7 (2×), 10.6, 15.2, 10.1, 12.5, 10.4, 21, 12.4, 13.3, 18.7, 12.1, 20.3, 28.5, 18, 20.4, 36.7, 14.5, 31.2, 21.8 (2×), 10.3, 17.1, 11.8, 25.1, 15, 20.2, 13.4, 21.1 (2×), 26.5, 32.7, 21.5, 26.4, 32.5, 25.8, 35.2, 40.2, 35.4, 33.4, 41.5, 35.7% and active: 6.78, -1.87, -0.498, -3.49, -6.53, -10.6 (2×), -8.58, -1.58, 6.39, 9.8, 8.38, 7.84, 6.97, -0.337, 2.42, 3.66, 7.09, -1.32, 6.28, 9.6, 0.844, -7.31, 4.58, 7.03, 9.54, -3.15, 9.87% | growth (0.25 µM, runs of 2016): inactive: 17.9, 31, 29.8, 28.9, 41.3, 19.8, 17.8, 19.5 (2×), 10.9 (2×), 14.4, 27.1, 19.9, 18 (2×), 20.5, 20.2, 11.9, 17.6, 16.5 (2×), 11.7, 17.1 (3×), 15, 13.9, 14.3, 25.1, 12.5, 20.9, 15.6, 24.8, 14.5, 21.4, 22.1, 22.7 (2×), 18.8, 26.8, 21, 26.9, 28.1, 25.2, 29.5 (2×), 29.9, 34.7, 25.3, 28.7, 29.4, 27, 30.2, 30.8, 18.2, 16.4, 30.3, 21.6, 11.2, 21.2, 28, 21.3, 26.2, 25.8, 24.9, 31.3, 32.4, 32.3% and active: 1.72, 2.47, -3.57, 7.01, 6.65, -6.15, 8.09, 4.17, 9.11, 2.29, -3.64, -2.72, 4.21, -2.46, 9, -3.89% | growth (0.25 µM, runs of 2017): inactive: 34.4, 38.1, 31.5 (2×), 31.3, 27.9, 13.6, 17.8, 19.3 (2×), 10.9, 14.8, 12.8, 19.1 (2×), 24, 21.8 (2×), 22.2, 20.3 (2×), 28.1 (2×), 21, 27, 19.8, 23.8, 33, 25.8 (2×), 14.5, 12.7, 22, 23.6, 21.7, 18.1, 19.2, 20.5, 25.2, 26.6, 22.3 (2×), 23.4, 32.2, 35.4, 38.9, 27.7, 37.2, 28.2, 33.8, 28.7, 30.8, 27.2, 33.6, 42.7, 23.2, 27.1, 31.4, 18.8, 25, 27.3, 27.6, 22.1, 19.4, 34, 26.8% and active: -0.125, 2.34, -1.37, -3.89, 3.9, -1.15, 8.8, -0.237, 4.7, 6.7, 7.78, 5.47, 1.15, -1.1% | growth (0.25 µM, runs of 2018): inactive: 44.9, 48.5, 35.4, 37, 44.6, 45.8, 37.5, 39.3, 41.8, 39.9, 42.8, 43, 49, 49.7, 52, 42.9, 45.1, 42, 46.2, 28.6, 21.1, 23.2, 24.2, 27.2, 25.6, 21.5, 29.2, 32.5, 30.6, 30.9 (2×), 28.3, 28.8, 16.6, 31.7, 34.8, 15.2, 22.7, 17.8, 26.1, 25.3, 19.7, 20.5, 27.4, 27.9, 21.7, 30.5, 25.8, 22.8, 31.4, 20.2, 22.3, 29.8, 31% and active: 8%, 6.4%, 6.98% | growth (0.25 µM, runs of 2019): active: 3.63, 5.5, 1.91, 9.62, 6.83, 8.18, 7.58, 6.33% and inactive: 10.3, 22.9, 17.8 (2×), 19, 18.9, 19.3, 30.2, 32.8, 32.1 (2×), 20.9, 18.2, 20.6, 19.4 (2×), 25.3, 12.5, 16.4 (2×), 18.6, 20.3 (3×), 19.2, 17.9 (2×), 18.3, 19.9, 21.5, 28.6, 30.7, 28.3, 29.4, 14.3, 11.2, 10, 14.6, 14.7% | growth (0.25 µM, runs of 2020): inactive: 15.4, 18.1, 29.2, 21.3, 22.9, 20.3, 13.3, 11.8, 16.3, 12, 15.8, 25.6, 25.1, 37.9, 27.2, 33.7, 43.1, 33.8, 42.3, 39.3, 40.1, 41.2, 44% and active: 5.74%, 7.07%, 8.06% | growth (0.25 µM, runs of 2021): inactive: 51.5, 60.8, 22.1, 30.3, 28.4, 27.9, 28.9, 19.1, 21.3, 21.4, 19.5, 28.1, 21.1, 26.3, 20.6, 24.2, 24.5, 27.1, 22.7 (2×), 22.2 (2×), 27.3, 18.4, 13.2, 15.2, 20.1, 14.9, 20.5, 17.3, 16.8, 21.7, 20.3, 27.8, 27.2, 24.1, 26.1, 14.6, 36.4, 21.8, 19.8% and active: 7.24, 6.19, 7.59, 6.65, 3.8, 8.25, -2, 9.61, -0.4, -1.15, 2.82, -10.1, 7.22, 2.77% | growth (0.25 µM, runs of 2022): active: -70.2, -60.8, -70.4, -20.7, 8.51, 6.45, 1.61, 9.19, 1.14, -0.823, 9.15% and inactive: 19, 22.3, 17, 27, 20.2, 24.3, 10.1, 44.4, 55.4, 50.9, 57.1, 20.9, 23.2, 18.2, 24.8% | growth (25 µM, runs of 1991): active: -84.7, -84.6, -84.5, -96.3, -90.7, -69.6, -92.2, -98.4, -61.8, -79, -77.4, -90.8, -85.1, -56, -95.5, -81.1% | growth (25 µM, runs of 1992): active: -77.4, -85.7, -100 (16×), -69.1, -90.7 (2×), -88.7 (3×), -80, -67, -79.9, -88.9, -85.8, -86.9, -90.2, -60.2, -94.8, -87.4, -89.6, -83.7, -82.2, -89.3, -99.9 (4×), -96.2, -96.6, -89.7, -95.9 (3×), -94, -96 (4×), -49.6, -91.1, -98.1 (2×), -67.6, -77.2, -97.5, -98.2, -96.3 (2×), -95.6 (3×), -81.1, -90.5, -75.7, -98.5 (2×), -99.6 (2×), -95.3 (2×), -98.6 (2×), -96.7, -90.9, -48.2, -92.9, -99.5 (2×), -99.7, -93.6 (3×), -93.7, -92.2 (2×), -98.8, -93.8, -93, -95.2, -91.3, -95, -86.8, -97, -92.6, -94.9, -85.2, -97.9, -93.2, -99.3, -98.9, -99.4, -86.3, -99.8, -96.9, -51.2, -91.5, -89.9, -98.4, -94.6, -81.9, -77.5, -93.5% | growth (25 µM, runs of 1993): active: -64.6, -94.9, -92.8, -95.6, -27.8, -95.5, -89.7, -94.1, -76.3, -71.8, -64.4, -20.6, -84.8 (2×), -73.9, -93.8, -74.6, -91.5, -85.9, -14.1, -71.9, -84.2, -80.7, -88.5, -81.8, -66.1, -67.3, -57.1, -76.5, -58.8, -84.3, -74.8, -92.7, -94.6, -65.2, -66.5, -42.8, -98, -75.1, -85.7, -86, -98.8, -94.5% | growth (25 µM, runs of 1994): active: -19.5, -98, -84.7, -85.7, -95.1, -72.6, -83.3, -90.8, -87.6, -51.1, -97.3, -74.4, -96.5, -88.2, -81.3, -68.6, -48.9, -50.8, -88.6, -75.4, -96.4, -98.2, -100, -47, -50, -94.9, -79.8, -97.6, -67.3, -91.5, -85.8% and inactive: 90.7%
